From publication PMC6919601, “Identification of Plasmodium dipeptidyl aminopeptidase allosteric inhibitors by high throughput screening” (PLoS ONE, 2019)
The whole screen tested about 110,000 compounds, of which about 230 (0.21%) showed an effect of 50% or more. The list shows a part of the results.

target: DPAP1 (Plasmodium falciparum, UniProt Q8IIJ9); test: primary screen, percent inhibition; read by cleavage of a fluorogenic dipeptide substrate; higher = more effect of the substance; parameters: species or system P. falciparum D10 trophozoite lysates; single well
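Note: 30 min substrate incubation versus DMSO and 10 µM JCP410 controls.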

Chain of DPAP1 (Q8IIJ9 whole entry, looked up): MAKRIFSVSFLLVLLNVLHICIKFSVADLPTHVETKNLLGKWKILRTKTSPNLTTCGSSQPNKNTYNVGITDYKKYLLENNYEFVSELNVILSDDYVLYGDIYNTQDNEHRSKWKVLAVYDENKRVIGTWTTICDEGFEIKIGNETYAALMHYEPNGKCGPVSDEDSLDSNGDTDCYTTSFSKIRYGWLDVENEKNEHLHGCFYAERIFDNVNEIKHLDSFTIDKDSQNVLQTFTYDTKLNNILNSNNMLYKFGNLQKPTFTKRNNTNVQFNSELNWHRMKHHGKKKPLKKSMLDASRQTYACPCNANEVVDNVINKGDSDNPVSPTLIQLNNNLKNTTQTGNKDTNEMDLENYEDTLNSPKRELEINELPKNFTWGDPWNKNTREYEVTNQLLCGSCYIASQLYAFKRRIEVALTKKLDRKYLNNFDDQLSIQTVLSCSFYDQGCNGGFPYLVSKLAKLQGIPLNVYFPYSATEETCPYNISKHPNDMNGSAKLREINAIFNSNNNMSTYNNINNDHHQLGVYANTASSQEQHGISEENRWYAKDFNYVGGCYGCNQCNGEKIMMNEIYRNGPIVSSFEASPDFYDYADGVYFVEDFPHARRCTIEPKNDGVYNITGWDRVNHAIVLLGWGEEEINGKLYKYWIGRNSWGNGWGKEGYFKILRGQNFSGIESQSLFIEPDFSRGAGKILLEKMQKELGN

In order of rising “% Inhibition @ 10 uM” value:
1. CC(C)NC(=O)c1cc(-c2ccc3c(c2)OCO3)nc2ccccc12  -11.8%
2. CCOc1cc(C=C2C(=O)NC(=O)NC2=O)cc(Cl)c1OCc1ccccc1Cl  -8.57%
3. Cc1ccc(-c2nnc3n(Cc4ccccc4)c(=O)c4ccccc4n23)s1  -7.29%
4. CCCOc1ccc(C2C(C(=O)OC)=CN(Cc3ccc(Cl)cc3)C=C2C(=O)OC)cc1  -6.93%
5. CC(C)Oc1ccc(-c2nc3s/c(=C\c4ccco4)c(=O)n3n2)cc1  -6.86%
6. COc1ccc(Nc2nc(Cl)nc(NCc3ccco3)n2)cc1  -6.62%
7. CCN(CC)CCCNc1oc(/C=C/c2cc(OC)c(OC)c(OC)c2)nc1C#N  -6.29%
8. c1ccc2c(c1)CCCC2Nc1ncnc2c1nc1n2CCCCC1 (centres unmarked)  -6.04%
9. COc1cccc(C(=O)Nc2cccc(NC(C)=O)c2)c1  -5.82%
10. Cc1cc(=O)n2ccc([N+](=O)[O-])c(O)c2n1  -5.5%
11. COc1cc(C(=O)Nc2ccc(NC(C)=O)cc2)cc(OC)c1OC  -5.23%
12. Cc1cc(NC(=O)c2cc(-c3ccco3)on2)no1  -5.09%
13. CC1=CC(C)C2C(=O)N(c3ccc[n+](C)c3)C(=O)C2C1 (centres unmarked)  -5%
14. COc1cc(F)c(C[C@H](NC(=O)c2ccc(-c3cc(C(=O)O)ccc3Cl)cc2)C(=O)NCC#N)c(F)c1  -4.82%
15. O=C(O)CCCC(=O)Nc1ccc(NC(=O)c2ccco2)cc1  -4.76%
16. Cc1cccc(CCNC(=O)C2CCC(CNS(=O)(=O)c3cccc4cccnc34)CC2)c1 (centres unmarked)  -4.21%
17. CN1CCN(CCCNC(=O)Cc2cn(C)c3ccccc23)CC1  -3.87%
18. CC(CCN1CCN(c2ccccc2F)CC1)c1ccccc1 (centres unmarked)  -3.57%
19. CC1=CC=CC2=NC(C(F)(F)F)(C(F)(F)F)N=C(c3ccc(C)cc3)N12  -3.53%
20. COC(=O)C1=C(C)N(CC2CCCO2)C(=O)/C1=C\c1cc(C)n(-c2ccccc2Cl)c1C (centres unmarked)  -3.41%
21. COc1ccc(-c2ccc(S(=O)(=O)NCC3CCCO3)cc2)cc1 (centres unmarked)  -3.29%
22. COc1cc(Br)cc2c1Oc1nc(-c3ccccc3)nc(SCC(N)=O)c1C2  -2.92%
23. Cc1cc(Cl)nc2cc(O)ccc12  -2.88%
24. O=C(CN1C(=O)c2ccccc2C1=O)N(Cc1ccccc1)Cc1ccccc1  -2.87%
25. CCCOc1ccc(CC(=O)O)cc1OC  -2.87%
26. CC(C)CCNC(=O)CCc1nnc2n(C)c(=O)c3ccccc3n12  -2.42%
27. CCc1cc(C(N)=O)c(NC(=O)c2ccc(OC)cc2)s1  -2.19%
28. NC(=O)C1CCN(C(=O)c2ccc3c(c2)OCO3)CC1  -2.07%
29. Oc1ccc(Br)cc1/C=N/c1cccc(Nc2nc(N3CCOCC3)nc(N(c3ccccc3)c3ccccc3)n2)c1  -1.8%
30. CCOc1ccc(NC(=O)Cc2ccc(OC)cc2)cc1  -1.77%
31. CC1(C)CC(C2N3CC4(C)CN2CC(C)(C3)C4=O)CCO1 (centres unmarked)  -1.33%
32. CN(C)CCN(C)Cc1cccc2ccccc12  -1.07%
33. CCCCN1CCCC1C(O)(c1ccccc1)c1ccccc1 (centres unmarked)  -0.687%
34. Nc1c2c(nc3ccc(Br)cc13)N(c1ccccc1)CC2  -0.582%
35. CCOc1ccc(CNc2nc3ccc(Cl)cc3n3cnnc23)cc1OC  -0.522%
36. CCN(CC)S(=O)(=O)N1CCC(C(=O)NCc2ccc(C)cc2)CC1  -0.519%
37. CCOc1ccccc1OCc1nn2c(-c3ccccc3Br)nnc2s1  -0.45%
38. COc1cc(C2=NOC(C(=O)Nc3cccnc3)C2)cc(OC)c1OC (centres unmarked)  -0.431%
39. COc1ccccc1C(=O)Nc1ncccc1C  -0.425%
40. COc1ccc(-c2ccc3c(N)c(C(=O)Nc4cc(OC)ccc4OC)sc3n2)cc1  -0.312%
41. c1ccc(C2CCN(c3ncnc4c3nc3n4CCCCC3)C2)cc1 (centres unmarked)  -0.0255%
42. O=C(O)c1ccc(S(=O)(=O)N2CCCC2)cc1  0.0345%
43. CN(C)CCCN1C(=O)C(O)=C(C(=O)c2ccccc2)C1c1ccccc1 (centres unmarked)  0.163%
44. COc1cccc(C(=O)N2CCN(C(=O)CCC3CCCC3)CC2)c1  0.587%
45. COc1ccc(Cl)cc1S(=O)(=O)N1CCCC(C)C1 (centres unmarked)  0.611%
46. COc1ccc(-c2nnc(C3CCN(S(=O)(=O)c4ccc5c(c4)CCCC5)CC3)o2)cc1  0.66%
47. COc1cc2c(cc1OC)C(c1ccccc1O)NCC2 (centres unmarked)  1.66%
48. CCCNCc1c(C(=O)O)n(Cc2ccc(F)cc2)c2ccccc12  1.93%
49. CCCNC(=O)CCc1cn(Cc2ccccc2C)c2ccccc12  1.95%
50. CC(C)Oc1ccc(C2CC(=O)NNC2=O)cc1 (centres unmarked)  2.86%
51. CCN1CCN(C(=O)c2sc3nc(-c4ccc(F)cc4)cn3c2C)CC1  3.19%
52. CCCNC1=N/C(=C\c2ccco2)C(=O)N1c1ccccc1  3.49%
53. CCc1ccc(C2CC(=O)NC3=C2C(=O)CC(c2cc(OC)ccc2OC)C3)cc1 (centres unmarked)  3.67%
54. CSC(=O)NC12CC3CC(C1)C(C)C(C3)C2 (centres unmarked)  4.22%
55. Cc1ccc(-n2nc3c(N4CCC(C(=O)NCCN5CCN(C)CC5)CC4)nnc(C)c3c2C)cc1  4.23%
56. O=C(Cn1nc(Cc2ccncc2)c2ccccc2c1=O)NCc1ccc2c(c1)OCO2  5.09%
57. CCOC(=O)c1oc2ccccc2c1CN1CCN(C(=O)c2ccccc2)CC1  5.65%
58. Cc1cc(O)c(C(=O)/C=C/c2ccccc2O)c(=O)o1  6.08%
59. Cc1cc(-c2ccccc2)nc2cc(C(=O)N3CCN(c4ccccc4)CC3)nn12  6.39%
60. C=CCOc1ccc(CNc2ccc3[nH]c(O)nc3c2)cc1OC  6.98%
61. O=C(O)CCCC(=O)Nc1nc(-c2ccc(F)cc2F)cs1  7.17%
62. CCN(CC)c1ccc(/C=C2/SC(N3CCCCC3)=NC2=O)cc1  13%
63. COc1cc(-c2nn3c(-c4ccccc4)nnc3s2)cc(OC)c1OC  17.2%
64. CC1=CN2C(=N)/C(=C/c3ccc(SCc4ccco4)o3)C(=O)N=C2S1  19.8%
65. CCc1ccc(C2CC(=O)N3CN(C4CCCCC4)CSC3=C2C#N)cc1 (centres unmarked)  64.5%
